From PubChem BioAssay AID485344 (National Center for Advancing Translational Sciences (NCATS), 2010) come the findings set out here.

As usually defined, the inhibition is the change of the read-out against control, counted positive when it falls.

Among all 340,000 compounds or so, about 6,900 (2%) were called active. No stated cut-off is given here; in the data, active means inhibition above about 30%; inactive means below that, where a call was filed. The list shows a part of the results, in another mix than the full data. The source gives no active or inactive call for entries shown without one.

UniProt P14416, sequence (P14416 whole entry, looked up): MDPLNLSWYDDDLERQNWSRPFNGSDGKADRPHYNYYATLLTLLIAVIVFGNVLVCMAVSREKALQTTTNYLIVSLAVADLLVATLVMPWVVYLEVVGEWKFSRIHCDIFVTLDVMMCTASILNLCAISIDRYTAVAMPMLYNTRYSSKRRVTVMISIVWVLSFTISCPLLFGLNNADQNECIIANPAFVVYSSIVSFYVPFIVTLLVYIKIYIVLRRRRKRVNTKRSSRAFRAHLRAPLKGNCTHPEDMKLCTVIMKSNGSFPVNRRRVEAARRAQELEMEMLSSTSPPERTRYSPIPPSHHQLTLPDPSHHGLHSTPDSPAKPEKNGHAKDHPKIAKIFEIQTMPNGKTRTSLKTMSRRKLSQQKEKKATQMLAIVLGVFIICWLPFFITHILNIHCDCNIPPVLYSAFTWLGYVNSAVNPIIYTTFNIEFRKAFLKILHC

For this assay, the target named is D(2) dopamine receptor (Homo sapiens) (UniProt P14416). Nature of the assay: HTS Assay for Allosteric Antagonists of the Human D2 Dopamine Receptor: Primary Screen for Antagonists. Further: 0% is about no effect. The following applies: HEK293 TREx D2 cells, calcium flux, dopamine EC80; at 10 µM; stronger effect = higher value. The method, boiled down:
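Calcium flux kinetic readout in an inducible HEK293 TREx D2 line plated overnight at 30 C. After 180 s compound exposure, an EC80 dopamine challenge follows with another 180 s kinetic read to detect antagonism.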
In general terms: Calcium assays in cells follow changes in intracellular calcium, usually with a dye or a luminescent sensor.
For the compound `CCOc1ccc(NC(=O)Cn2c(=O)n(CCc3ccccc3)c(=O)c3c4c(sc32)CN(C(C)=O)CC4)cc1`, the inhibition is -2.07%.

For the compound `CCOCCCNC(=O)c1cnc2sc(N3CCCCCC3)nn2c1=O`, the inhibition is 11.1%.

Take `Cc1nn(-c2ccccc2)c(OC(=O)c2ccc(Br)cc2)c1S(=O)(=O)c1ccccc1`: the inhibition is -7.23%.

For the compound `Cc1ccc(CC(=O)N(Cc2nc(-c3ccc(C)cc3)no2)C(C)C)cc1`, the inhibition was -2.27%.

Take `Cc1ccc(C)c(N2CCN(C(=O)c3cccc(-n4c(C)nc5cccnc54)c3)CC2)c1`: the inhibition turned out to be 1.33%.

Regarding `CCOc1ccc(OCC)c(NC(=O)c2cc(C)nc3c2c(C)nn3-c2cccc(Cl)c2C)c1`, the inhibition stood at 17.5%.

As for `Cc1ccc(CNC(=O)C(C(C)C)N2Cc3ccccc3C2=O)cc1` (stereo unspecified), the inhibition was 12.6%.

Take `CCN(c1ccc(OC)cc1)S(=O)(=O)c1c(C(=O)N2CCCCCC2)c(C)n(C)c1C`: the inhibition was 16.4%.

`CN(C(=O)CSc1cn(CC(=O)N2CCCCCC2)c2ccccc12)c1ccccc1`: the inhibition is 12.9%.

With `O=C(NC1CCCCC1)c1ccc(Cn2c(SCc3cccc(F)c3)nc3cccnc32)cc1`, the inhibition turned out to be 14.1%.

As for `CCCCNc1sc(S(=O)(=O)CC)nc1S(=O)(=O)c1ccc(C)cc1`, the inhibition was determined as 6.14%.

With `Cc1ccc(N2CC(c3nnc(Cc4ccc(Cl)cc4)o3)CC2=O)cc1` (stereo unspecified), the inhibition is -1.83%.

Take `CNS(=O)(=O)c1cn(CC(=O)Nc2ccc(F)cc2F)cc1S(=O)(=O)NC`: the inhibition was -1.97%.

As for `Cc1cccc(N2CCN(C(=O)Cn3c(=O)c4cccn4c4ccc(F)cc43)CC2C)c1` (stereo unspecified), the inhibition was -2.91%.

Turning to `CCc1ccccc1NC(=O)CSc1nnc(-c2cc(OC)c(OC)c(OC)c2)o1`, the inhibition turned out to be 1.27%.

Regarding `CCC(=O)Nc1sc2c(c1C(N)=O)CCN(Cc1ccccc1)C2`, the inhibition was active: 38.1%.

`Cc1ccc(-c2c(CN3CCN(c4cc(Cl)ccc4C)CC3)csc2C)cc1`: the inhibition was -0.8%.

In the case of `CC(=O)N1CCc2c(sc3c2c(=O)n(-c2ccccc2Cl)c(=O)n3C)C1`, the inhibition was -12%.

With `O=C(CSc1nc2ccccc2n1CC(=O)Nc1ccc(F)cc1F)Nc1ccc(F)cc1`, the inhibition was found to be 2.38%.

As to `COc1ccc(-n2c(SCc3nc(-c4ccc(C)cc4)no3)nnc2-c2ccncc2)cc1`, the inhibition was -12.1%.

For the compound `CCOc1ccc2c(c1)c(=O)c(S(=O)(=O)c1ccc(C)cc1)cn2CC(=O)Nc1ccc(C)cc1`, the inhibition is -0.559%.

In the case of `CCn1c(=O)c2cc(C(=O)NCCc3cccc(C)c3)sc2c2ccccc21`, the inhibition is 12.5%.

For the compound `COC(=O)C1CCN(Cc2cn(-c3ccccc3)nc2-c2ccc3c(c2)OCO3)CC1`, the inhibition is active: 81.9%.

Consider `CCc1ccccc1Nc1nn2c(=O)c3ccc(C(=O)NCCc4ccccc4)cc3nc2s1`, for which the inhibition was -1.71%.

For the compound `Cc1c(Cl)cccc1NC(=O)CN1C(=O)c2ccccc2Sc2ncccc21`, the inhibition was -15.3%.

With `Cc1cccc(C(=O)NC2(C(F)(F)F)N=C(c3ccccc3)N(Cc3ccccc3)C2=O)c1` (stereo unspecified), the inhibition was found to be 1.06%.

For the compound `CC(=O)c1ccc(NC(=O)c2cccc(NC(=O)N3CCSc4ncccc43)c2)cc1`, the inhibition stood at 1.33%.

With `Cc1cc(C)cc(N(C)S(=O)(=O)c2nnc(NC(=O)COc3ccc(C)c(C)c3)s2)c1`, the inhibition was found to be 5.32%.

`CCOCCCNC(=O)c1c(NC(=O)Cc2coc3c(C)c(C)ccc23)sc2c1CCC2`: the inhibition is -6.53%.

`COC(=O)c1cc(C)nc2c1c(=O)nc(SCc1cc(C)ccc1C)n2C1CC1`: the inhibition was -27.5%.

On to `CCCN(Cc1cc2cc(C)ccc2[nH]c1=O)C(=O)c1cccc(Cl)c1`, for which the inhibition is -6.71%.

As to `COc1cc(OC)c(NC(=O)COc2ccccc2-c2nnc(-c3ccccc3)o2)cc1Cl`, the inhibition was 2.42%.

As to `O=c1/c(=C\c2cc([N+](=O)[O-])cc([N+](=O)[O-])c2O)sc2nc3ccccc3n12`, the inhibition was active: 31%.

Take `Cc1cccc(NC(=O)C2CCC(CNS(=O)(=O)c3ccc4c(c3)CCCC(=O)N4)CC2)c1C` (stereo unspecified): the inhibition was -2.75%.

For the compound `CCN1CCOC(=O)C1CC(=O)Nc1ccccc1C(F)(F)F` (stereo unspecified), the inhibition is -2.28%.

`Cc1nc(-c2ccc(F)cc2)sc1CCNC(=O)c1ccccc1`: the inhibition amounted to 13.7%.

Take `O=Cc1ccc(OCC(=O)NCC2CCCO2)cc1` (stereo unspecified): the inhibition is active: 30.1%.

As for `CCOC(=O)c1c(C)oc2nc(C)nc(N3CCN(c4ccc(C)cc4C)CC3)c12`, the inhibition is -3.83%.

As to `COc1ccc(C(=O)NCC(c2ccco2)S(=O)(=O)c2ccccc2)cc1` (stereo unspecified), the inhibition was -13.6%.

On to `CC(=O)N1CCCc2cc(S(=O)(=O)N3CCC(C(=O)NCc4ccc(F)cc4)CC3)ccc21`, for which the inhibition is -7.48%.

In the case of `COc1ccc2oc(=O)c(C(=O)NCCc3c(C)[nH]c4c(C)cccc34)cc2c1`, the inhibition was -14.1%.

For the compound `COC(=O)c1cc(NC(=O)CCS(=O)(=O)c2cc(Br)cc3c2N(C(=O)C2CC2)CC3)cc(C(=O)OC)c1`, the inhibition was -14.5%.

As for `CCOc1cc2[nH]c(=O)n(CCC(=O)N3CCN(c4cccc(Cl)c4)CC3)c(=O)c2cc1OCC`, the inhibition was -19.8%.

As for `CN1CCN(c2ccc(NS(=O)(=O)c3ccc(Cl)cc3)cn2)CC1`, the inhibition is active: 32.7%.

As to `CCOC(=O)Cn1nc(C)c(NC(=O)COc2ccc(OC)cc2)c1C`, the inhibition was determined as 14.1%.

For `CCn1c2ccccc2c2cc(NC(=O)COc3cc(C)c(Cl)c(C)c3)ccc21`, the inhibition was -7.87%.

Consider `CCOc1ccc(-c2csc3ncnc(Nc4cccc(O)c4)c23)cc1`, for which the inhibition was 3.34%.

As to `Cc1ccccc1C(=O)Nc1ccc(NC(=O)c2cccs2)cc1`, the inhibition is -1.87%.

For the compound `CCOc1ccc(CCNC(=O)C2CCCN(c3nnc(C)c4c(C)n(-c5ccccc5)nc34)C2)cc1` (stereo unspecified), the inhibition was -8.72%.

In the case of `NC(=O)c1c(NC(=O)c2noc3c2CCCC3)sc2c1CCCC2`, the inhibition was 7.09%.

`CN(CCNC(=O)c1cn(C)c2ccc(S(=O)(=O)N(C)C)cc2c1=O)CCc1ccccc1`: the inhibition was active: 45.2%.

For `COc1ccccc1N1CCN(C(=O)C2CCN(S(=O)(=O)c3cccc4nonc34)CC2)CC1`, the inhibition was -12.9%.

`Nc1ncc(S(=O)(=O)NCc2ccccc2F)cn1`: the inhibition worked out at 15.1%.

For the compound `Cc1ccc(Nc2cc(C(=O)NC3CCCC3)c3ccccc3n2)cc1C`, the inhibition was -13.2%.

Take `COc1ccccc1OCC(=O)Nc1ccc2c(c1)OCO2`: the inhibition is active: 32.3%.

Take `CCOC(=O)c1c(C)n(-c2ccccc2)c2ccc(OC(=O)c3ccccc3Cl)cc12`: the inhibition was -5.18%.

Turning to `CC(C)COc1ccc(C(=O)NCC2OCCc3ccccc32)cc1` (stereo unspecified), the inhibition came to 6.24%.

Take `Cc1cccc(CNC(=O)c2ccc(-c3nc(CS(=O)(=O)c4ccccc4)c(C)o3)cc2)c1`: the inhibition was 10.9%.

Take `Cc1ccc(NC(=O)COc2ccc3oc4c(c3c2)CCCC4)c(C)c1`: the inhibition is 17.2%.

Regarding `CN(C)c1ccc(-c2nc(-c3ccccn3)no2)cc1[N+](=O)[O-]`, the inhibition came to 9.02%.

Take `Cc1cc(C)n2nc(CNC(=O)c3cccc(Cl)c3)nc2n1`: the inhibition is -3.36%.
